From patent US20260218128A1 (CARSGEN LIFE SCIENCES, published 2026)

What was measured:
[1] = target: T1, human MOG overexpressed on cells (293T-hMOG, K562-hMOG) (human, UniProt Q16653 30-247); assay: flow cytometry, scFv_hFc titrated on 293T-hMOG cells
T1 construct: Cells overexpressing human MOG built by conventional techniques; also called K562-huMOG
T1 chain: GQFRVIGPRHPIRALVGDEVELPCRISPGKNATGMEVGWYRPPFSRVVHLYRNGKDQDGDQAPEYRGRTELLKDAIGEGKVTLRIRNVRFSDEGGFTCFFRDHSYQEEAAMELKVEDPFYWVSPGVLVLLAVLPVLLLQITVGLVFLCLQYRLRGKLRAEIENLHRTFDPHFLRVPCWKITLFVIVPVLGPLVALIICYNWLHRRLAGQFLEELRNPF

[2] = target: T2, mouse MOG overexpressed on cells (293T-mMOG, K562-mMOG) (mouse, UniProt Q61885 29-246); assay: flow cytometry, scFv_hFc titrated on 293T-mMOG cells
T2 construct: whole, on cells
T2 sequence (looked up): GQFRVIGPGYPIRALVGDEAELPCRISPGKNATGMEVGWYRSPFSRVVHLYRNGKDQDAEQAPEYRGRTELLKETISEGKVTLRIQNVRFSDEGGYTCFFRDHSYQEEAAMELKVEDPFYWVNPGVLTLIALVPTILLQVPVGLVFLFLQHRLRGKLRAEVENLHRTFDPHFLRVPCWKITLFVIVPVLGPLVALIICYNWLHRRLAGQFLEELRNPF

[3] = target: T3, recombinant hMOG_his (human, UniProt Q16653 30-154, limits assumed); assay: ELISA, hMOG_his coated at 2 µg/ml, scFv_hFc titrated, anti-huFc-HRP detection
T3 construct: also called human MOG antigen; not shown: His tag
T3 sequence: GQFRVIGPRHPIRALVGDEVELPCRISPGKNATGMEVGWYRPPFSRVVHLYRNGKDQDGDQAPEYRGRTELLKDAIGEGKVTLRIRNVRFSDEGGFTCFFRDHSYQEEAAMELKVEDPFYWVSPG

B1: A9 (scFv_hFc form) (Fc fusion)
chain: [here about 100 residues without letters]PSLADWGDMDYWGQGTLVTVSSGGGGSGGGGSGGGGSDIQMTQSPSTLSASVGDRVTITCRASQSISSWLAWYQQKPGKAPKLLIYDASSLESGVPSRFSGSGSGTEFTLTISSLQPDDFATYYCQQYDQYWTFGQGTKVEIKR
notes: also called A9 scFv-Fc; not shown: human Fc (hFc)
An EC50 [1] of 12.5 nM, an EC50 [2] of 130 nM and an EC50 [3] of 0.135 nM were found for B1 in this work.
